Laboratory results published in PubChem BioAssay AID463173 (ICCB-Longwood Screening Facility, Harvard Medical School, 2010).
In all, about 52,000 compounds went through this assay and about 1,700 (3.3%) were called active. Cut-off read from the data, not from the text of the source: active = survival mostly below about 52% (no sharp cut-off); inactive = mostly above about 56%. The list shows a part of the results.

tested on: Wild type; assay: S. aureus survival, RN4220 and DeltatarO strains – OD600, teichoic acid synthesis inhibitors, primary screen (AID 463173); conditions: S. aureus RN4220 wild type/DeltatarO growth, OD600, 18 h, stronger effect = lower value, screened at 18.75 µg/mL (by protocol)

| Structure (SMILES) | survival |
| --- | --- |
| CCCCOc1ccc(C(=O)NCCc2sc3nc(-c4ccc(OC)cc4)nn3c2C)cc1 | inactive: 90% |
| CCOc1cc2c(cc1OCC)C(CC(=O)O)N(C(=O)Nc1ccc(Br)c(C)c1)CC2 (stereo not drawn) | inactive: 81% |
| O=C(Nc1ccc(N2CCN(c3ccc(F)cc3)CC2)c(C(=O)O)c1)c1cccs1 | inactive: 85% |
| O=C(NCCNC1CCCC1)c1cccs1 | inactive: 116% |
| COc1ccc(NC(=O)c2ccco2)cc1NC(=O)c1ccc(C#N)cc1F | inactive: 144% |
| Cc1c(C(=O)Nc2ccc(F)c(Cl)c2)sc2nc3n(c(=O)c12)CCC3 | inactive: 81% |
| Cc1nc2ccc(C(=O)N3CCN(Cc4ccccc4)CC3)cc2[nH]1 | inactive: 98% |
| COc1ccc(CNC(=O)C2CC(O)CN2C(=O)Nc2ccccc2)cc1 (stereo not drawn) | inactive: 113% |
| CCCNC(=O)c1cnn(-c2ccc(C)c(C)c2)c1C1CCN(C(=O)OC(C)(C)C)CC1 | inactive: 73% |
| Nc1nc2c3cccc4cccc(c(=O)n2n1)c43 | inactive: 116% |
| O=C(NCCc1ccccc1)C1CCN(c2nc3ccccc3nc2C(F)(F)F)CC1 | inactive: 75% |
| CCCCCSc1nnc2c(n1)[nH]c1c(C)cccc12 | inactive: 78% |
| COc1ccccc1N1CCN(c2ncnc3c2cnn3-c2ccc(C)cc2)CC1 | inactive: 63% |
| COCCn1c(SCC(=O)c2ccc(C)cc2)nc2cc(C(=O)NC3CCCC3)ccc2c1=O | inactive: 72% |
| FC(F)(F)c1cc(Nc2nc3ccccc3c3nncn23)ccc1Cl | inactive: 95% |
| CCc1ccc(/C=C(/C#N)c2nc(-c3ccc(C)cc3)cs2)cc1 | active: -2% |
| CCCOc1ccc(C(=O)N2CCC(c3nc4ccccc4s3)CC2)cc1 | inactive: 46% |
| O=C(C1CC1)N1CCc2cc(Br)cc(S(=O)(=O)Nc3ccc(F)c(F)c3)c21 | inactive: 142% |
| Cc1cc(C)cc(N2CCn3c2nc2c3c(=O)n(Cc3c(F)cccc3Cl)c(=O)n2C)c1 | inactive: 86% |
| CCc1ccc2oc(-c3ccc(C)c(NC(=O)Cc4ccccc4)c3)nc2c1 | inactive: 143% |
| O=C(Cn1c(=O)c(CNc2ccccc2)cc2cc3c(cc21)OCCO3)Nc1ccccc1Cl | inactive: 129% |
| CC(C)(C)OC(=O)N1CCC(c2c(C(=O)NCCN3CCOCC3)cnn2-c2cccc(Cl)c2)CC1 | inactive: 76% |

| Structure (SMILES) | survival |
| --- | --- |
| Cn1c(=O)c2c(nc(CN3CCN(c4ccccc4F)CC3)n2Cc2ccc(F)cc2)n(C)c1=O | inactive: 76% |
| COc1ccc(Cl)cc1N(C(C)=O)c1nc(C)cc(C)c1C#N | inactive: 102% |
| Cc1nn(C)c2c1c(C(F)(F)F)cc(=O)n2Cc1ccc(Br)cc1F | inactive: 75% |
| O=c1c(S(=O)(=O)c2ccccc2)cn(Cc2ccccc2)c2cc(N3CCCC3)c(F)cc12 | inactive: 97% |
| CCOc1ccc(N(Cc2ccccc2)C(=O)c2nc(SC)ncc2Cl)cc1 | inactive: 88% |
| Cc1cc(C)cc(C(=O)NCCc2sc(-c3ccc(F)cc3)nc2C)c1 | inactive: 84% |
| Cc1cccc(NC(=O)CSc2nc3n[nH]c(C)c3c(=N)n2-c2cccc(Cl)c2)c1 | active: 14% |
| COc1ccc(Cl)cc1N/C=C(/C#N)c1nc2ccccc2n1C | inactive: 108% |
| COc1ccc(OC)c(C2CC(=O)Nc3c2c(=O)[nH]c2nc4ccccc4n32)c1 (stereo not drawn) | inactive: 155% |
| CCOC(=O)C1CCN(CCC(=O)Nc2ccccc2OC)CC1 | inactive: 86% |
| N#Cc1ccc(NC(=O)COCc2cc(-c3ccco3)on2)cc1 | inactive: 91% |
| COc1cc(CNC(=O)c2ccc3nc(Cc4ccccc4)oc3c2)cc(OC)c1OC | inactive: 148% |
| COc1ccc(-c2c(C)c3cc(OC(=O)N4CCOCC4)ccc3oc2=O)cc1OC | inactive: 60% |
| CC(CNC(=O)c1ccc(Cn2c(=O)c3cccn3c3cccnc32)cc1)c1ccccc1 (stereo not drawn) | inactive: 80% |
| CNC(=O)C(C)SCc1ccccc1 (stereo not drawn) | inactive: 102% |
| NC(=O)Cn1c(=O)n(CCCCCC(=O)NCc2ccc3c(c2)OCO3)c(=O)c2sccc21 | inactive: 91% |
| COc1cccc(C(=O)CC2(O)C(=O)N(Cc3ccccc3)c3ccccc32)c1 (stereo not drawn) | inactive: 126% |
| Cc1ccccc1C(=O)Nc1sc2c(c1C(=O)N1CCC(C)CC1)CCC(C)C2 (stereo not drawn) | active: 0% |
| CCOc1cc2[nH]c(=O)n(CCCCC(=O)N3CCN(c4ccccc4OC)CC3)c(=O)c2cc1OCC | inactive: 64% |
| C=CCn1c(SCc2cccnc2)nnc1-c1ccncc1 | inactive: 104% |
| COc1cccc(Cn2nnc(C(=O)NCc3ccc(Cl)cc3Cl)c2N)c1 | inactive: 90% |
| CCc1cccc(NC(=O)Cn2c(=O)n3nc(-c4cccc(F)c4)nc3c3ccccc32)c1 | inactive: 64% |

| Structure (SMILES) | survival |
| --- | --- |
| Cc1cn2c(=O)cc(COC(=O)c3ccc(NC(=O)c4ccccc4C)cc3)nc2s1 | inactive: 75% |
| COc1ccc2c(c1)c1c(c(=O)n(-c3ccc(OC)c(OC)c3)c(=O)n1Cc1ccc(F)cc1)n2C | inactive: 71% |
| Cc1ccccc1CS(=O)(=O)Cc1ccc(C(=O)NCCc2ccc(Cl)cc2)o1 | inactive: 88% |
| CCOC(=O)C1CCCN(c2c(C(=O)c3ccccc3)cnc3ccc(F)cc23)C1 (stereo not drawn) | inactive: 22% |
| CCOC(=O)N1CCC(NC(=O)c2cnn(-c3ccc(OC)cc3)c2C2CCN(C(=O)OC(C)(C)C)CC2)CC1 | inactive: 56% |
| Cc1ccccc1NC(=O)COc1ccc2oc3c(c2c1)CCCC3 | inactive: 135% |
| Cc1ccc(Cn2c(=O)n(-c3cccc(C(F)(F)F)c3)c(=O)c3c(C)c(C)sc32)c(C)c1 | inactive: 86% |
| Cc1ccc(CSc2ncc(Cl)c(C(=O)Oc3ccccc3F)n2)cc1 | inactive: 90% |
| Cc1cn(C)c(CC(=O)Nc2cccc(C#N)c2)c1C(=O)O | inactive: 76% |
| O=C(CN1C(=O)COc2ccc(S(=O)(=O)N3CCCCCC3)cc21)N1CCN(c2ccc(F)cc2)CC1 | inactive: 86% |
| COc1ccc(-c2cc3nc(C)c(CCC(=O)NCCc4ccc(Cl)cc4)c(C)n3n2)c(OC)c1 | inactive: 97% |
| Cc1ccc(Cn2c(=O)c3cccnc3n(Cc3ccc(C)cc3)c2=O)cc1 | inactive: 100% |
| Cc1ccc(-c2nn3c(=O)cc(CN4CCN(C(=O)Nc5cccc(C(F)(F)F)c5)CC4)nc3s2)cc1 | inactive: 72% |
| C=CCn1c(SC(C)C)nc2sc3c(c2c1=O)CCCC3 | inactive: 108% |
| Cc1ccccc1OCCn1cc(C(=O)c2ccco2)c2ccccc21 | inactive: 34% |
| O=C(Oc1ccc2c(=O)c(Cl)coc2c1)c1cccnc1 | inactive: 95% |
| COc1ccc(OC)c(C2CC(=O)c3c([nH]c(C(=O)OCc4ccc(C)cc4)c3C)C2)c1 (stereo not drawn) | inactive: 84% |
| Clc1ccc(-c2noc3ncnc(NC4CCCCC4)c23)cc1 | inactive: 20% |
| Cc1ccc(CCNC(=O)c2cnc3c(-c4ccc(F)cc4)c(C)nn3c2C)cc1 | inactive: 134% |
| O=C(CCn1c(=O)c2ccccc2n(Cc2cccc(F)c2)c1=O)NCc1ccc2c(c1)OCO2 | inactive: 109% |
| CCOc1ccc(CN2CCN(Cc3ccc4c(c3)c3ccccc3n4CC)CC2)cc1 | active: -1% |
| CCOC(=O)C1=C(C)NC(=O)NC1c1c(O)ccc2ccccc12 (stereo not drawn) | inactive: 111% |

| Structure (SMILES) | survival |
| --- | --- |
| CCc1nn(CC(=O)NCc2ccc(C)cc2)c(=O)c2cc3occc3n12 | inactive: 128% |
| CCOc1ccc(C(=O)/C=C/c2cn(CC(O)CN3CCc4ccccc43)c3ccccc23)cc1 (stereo not drawn) | inactive: 69% |
| Cc1ccc(-c2c(C(=O)N3CCN(c4ccc(F)cc4)CC3)oc(=O)c3ccccc23)cc1 | inactive: 124% |
| Cc1cc(C)cc(N2C(=O)N(Cc3cc(=O)n4ccccc4n3)c3ccccc3S2(=O)=O)c1 | inactive: 127% |
| COc1cc(OC)c(OC)cc1CN1CCc2nc(N3CCN(C)CC3)ncc2C1 | inactive: 82% |
| COc1ccc(N2CCN(c3nc4ccc(C(=O)c5ccccc5)cc4n4cnnc34)CC2)cc1 | inactive: 73% |
| Cc1cccc2c1-c1sc(C(=O)NCCCN3CCN(c4ccccc4F)CC3)cc1CO2 | inactive: 84% |
| COc1ccc(CNC(=O)Cc2coc3ccc(C)cc23)cc1 | inactive: 112% |
| Cc1ccc(NC(=O)c2oc3ccc(S(=O)(=O)N4CCOCC4)cc3c2C)c(C)c1 | inactive: 140% |
| O=C(CCS(=O)(=O)c1nc(-c2ccc3c(c2)OCO3)cc(C(F)(F)F)n1)Nc1ccc(Br)cc1 | inactive: 88% |
| COc1ccc(NC(=O)Cc2c(C(=O)O)[nH]c3ccccc23)cc1OC | inactive: 83% |
| NC(=O)CSc1nnc2c(n1)CCCC2 | inactive: 112% |
| COC(=O)c1cccnc1-n1c(=O)c2cccnc2n(CC(=O)Nc2cccc(C)c2)c1=O | inactive: 134% |
| O=C1CC(c2c(F)cccc2Cl)c2c(ccc3ccccc23)N1 (stereo not drawn) | inactive: 78% |
| COc1cc(C2c3c(oc4ccc(F)cc4c3=O)C(=O)N2Cc2ccc3c(c2)OCO3)ccc1O (stereo not drawn) | inactive: 95% |
| CCCCN(CC)C(=O)c1c[nH]c2ccc(S(=O)(=O)N(C)c3ccc(Cl)cc3)cc2c1=O | inactive: 66% |
| COc1ccc(C(=O)Nc2ccc3nc4c(c(Nc5ccccc5OC)c3c2)CCCC4)c(OC)c1 | inactive: 63% |
| CC(C)Oc1ccc(CNC(=O)c2ccc3c(c2)nc2n3CCOC2)cc1 | inactive: 59% |
| COc1cc(NC(=O)N2CCSc3ccccc32)cc(OC)c1OC | inactive: 64% |
| CCN(c1ccccc1C)S(=O)(=O)c1nnc(NC(=O)c2ccccc2C)s1 | inactive: 26% |
| CCOc1ccc(OCC)c(NC(=O)C2CCCN(S(=O)(=O)c3cc(Br)cc4c3N(C(=O)CC)CC4)C2)c1 (stereo not drawn) | inactive: 94% |
| Cc1nc2nc(C)c(NS(=O)(=O)c3ccc(CC(C)C)cc3)c(=O)n2[nH]1 | inactive: 84% |
